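Results reflect a 48-hour exposure of cells in 96-well plates to compound at five concentrations. GI50 is the concentration that inhibits growth by half.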 Calls of active or inactive are those of the source. Rule as the data show it: active = GI50 up to about 1.1 µM and inactive = higher.

Consider 79 compounds from ChEMBL document CHEMBL1201862, “PubChem BioAssay data set” (2004).

The test system of the assay is NCI-H322M. The assay can be described thus: inhibition of tumour cell growth, NCI panel, 48 h.
`Cc1ccsc1C(=S)Nc1ccc(Cl)c(C(=O)OC(C(C)C)C(C)C)c1`: the GI50 was inactive: 35.6 µM. On to `Oc1c(Cl)cc(CN(Cc2cc(Cl)c(O)c(Cl)c2)C2CCCCC2)cc1Cl`, for which the GI50 is inactive: > 100 µM.

For `Cc1cc(NS(=O)(=O)c2ccc(NC(NC(=O)C(C(F)(F)F)C(F)(F)F)(C(F)(F)F)C(F)(F)F)cc2)no1`, the GI50 is inactive: > 100 µM.

Regarding `Cc1c(-c2ccccn2)ccc2ccccc12`, the GI50 is inactive: 90.4 µM.

For the compound `N=C(N)NS(=O)(=O)c1ccc(NCc2cccc3c(=O)c4ccc(Cl)cc4oc23)cc1`, the GI50 was inactive: > 20.9 µM. In the case of `CCC12CC(c3ccccc3)C(C(=O)N1)C(=O)N2` (centres undefined), the GI50 was inactive: > 100 µM.

As for `CCOC(=O)C1=C(C)N(c2ccc(C)cc2)C2=C(C(=O)N(c3ccccc3)C2c2ccccc2)C1c1ccccc1` (centres undefined), the GI50 was inactive: > 25 µM.

In the case of `CC1OC(OC2C(OC(=O)[C@@H]3CC(C)(C)C[C@@H]4C5=CC[C@@H]6[C@@]7(C)C[C@H](O)[C@H](OC8OC(CO)C(O)C(O)C8O)[C@@](C)(CO)C7[C@H](O)C[C@@]6(C)[C@]5(C)C[C@@H](O)[C@H]43)OCC(O)C2O)C(O)C(O)C1O` (some centres undefined), the GI50 was inactive: > 15 µM. As to `CC(C)OC(=O)C(NC(=O)C(CC(=O)OCc1ccccc1)NC(=O)OCc1ccccc1)NC(=O)C1C(C)(C)CCC1(C)C` (centres undefined), the GI50 was inactive: 28.9 µM.

As for `CN(C)CC1CCC(CN(C)C)C1=O` (centres undefined), the GI50 was inactive: 19.1 µM. Take `C=C(CCC(C(=O)O)C1CCC2(C)C3=C(CCC12C)C1(C)CCC(O)C(C)(C)C1CC3)C(C)C` (centres undefined): the GI50 was inactive: 36 µM. Under `CC(C)OP(=O)(OC(C)C)c1nc(-c2ccccc2)n(-c2ccc([N+](=O)[O-])cc2)n1` stands inactive: > 100 µM; under `O=Cn1c2ccccc2c2ccccc21`, inactive: > 100 µM; under `O=c1nc(N2CCCC2)nc(N2CCCC2)s1`, inactive: > 100 µM. Under `Cc1ccc(-n2cnc(C(=N)C#N)c2N)cc1` stands inactive: 27.6 µM; under `CC(=O)O/C=C1/C[C@H]2[C@@H]3CCC4CC(C(C)=O)CC[C@]4(C)[C@H]3CC[C@]2(C)C1=O` (some centres undefined), inactive: 60.5 µM; under `C#CC(O)/C=C/CCCCCCC#CC/C=C\CC#CCCCCCC/C=C/C(O)C#C` (centres undefined), inactive: 5.61 µM. On to `COc1c(CC(=O)c2ccccc2)c2ccccc2n1C(C)=O`, for which the GI50 was inactive: > 100 µM. Under `CCOc1ncn(-c2ccc(NC(=S)Nc3ncccn3)cc2)n1` stands inactive: > 100 µM.

Regarding `COC(=O)C1Cc2c([nH]c3ccccc23)C(c2cccc(O)c2)N1` (centres undefined), the GI50 was inactive: 27.8 µM. With `C1CCN(CCC2CCCCN2)CC1` (centres undefined), the GI50 is inactive: > 100 µM.

In the case of `CC(C)[Si]1(C(C)C)OCC2OC(n3ccc(=O)[nH]c3=O)C([Se]c3ccccc3)C2O[Si](C(C)C)(C(C)C)O1` (centres undefined), the GI50 is inactive: 13.6 µM.

`CC(NC1=CC(=O)c2ncccc2C1=O)C(O)c1ccccc1` (centres undefined): the GI50 was inactive: 5.79 µM. Under `CCOC(=O)c1[nH]c(COC(C)=O)c(CCCOC(C)=O)c1CCCOC(C)=O` stands inactive: > 100 µM; under `COc1ccc2c3c1O[C@H]1C(OC)C=CC4C(C2)N(Cc2cccs2)CCC341` (some centres undefined), inactive: > 100 µM.

Take `CN(/N=C/C=N/N(C)C1=NCCN1)C1=NCCN1`: the GI50 was inactive: > 100 µM. For `CCOC(=O)Cn1nnc2ccc(Nc3nc4ccccc4nc3-c3ccccc3)cc21`, the GI50 is inactive: 31 µM. On to `NC(=O)c1ccccc1NC(=O)C(=O)Cc1nc2ccccc2nc1O`, for which the GI50 was inactive: 86.5 µM. With `O=C(Nc1ccccc1F)c1cc2ccc(O)cc2o/c1=N\c1cccc(F)c1`, the GI50 was inactive: 3.92 µM.

With `CCOC(=O)CCc1c(C)nc2c(C)c3c([nH]c4ccc(Cl)cc43)c(C)c2c1O`, the GI50 is inactive: 37.3 µM. As for `CN(C)CCNC(=O)c1cccc2c1nc(-c1ccncc1)c1ccccc12`, the GI50 was inactive: 3.74 µM. On to `Cc1cccc(/N=N/c2ccc(O)c(CN(C)C)c2)c1`, for which the GI50 was inactive: 36.5 µM. For the compound `O=C(N/N=C(COc1ccc([N+](=O)[O-])cc1)\N=C\c1ccncc1)c1ccncc1`, the GI50 was inactive: > 100 µM.

On to `COc1ccc(C2OC(N)=C(C#N)C3=C2CCCC3C)cc1OC` (centres undefined), for which the GI50 is inactive: > 100 µM. Consider `Cc1ccccc1NC(=O)O/N=C(\Cl)C(C)C`, for which the GI50 was inactive: 17.9 µM. Under `NC(=O)NNC(=O)CCn1[nH]c(=O)c(Cl)c(Cl)c1=O` stands inactive: > 100 µM.

For the compound `CCCCCCCCCCNC(=S)OCCCC`, the GI50 is inactive: 34.1 µM. In the case of `BrCC(Br)(c1ccccc1)c1ccccc1-c1cc(-c2ccccc2)cc(-c2ccccc2)n1` (centres undefined), the GI50 is inactive: 6.79 µM. On to `Cc1cc(N(CCC#N)CCC#N)ccc1/C=C1N=C(/C=C/c2ccccc2)N(c2ccc(S(N)(=O)=O)cc2)C\1=O`, for which the GI50 was inactive: > 100 µM. For the compound `Cc1cc2c(cc1C)NC(=O)C(NC(=O)/C=C/c1ccccc1)C=N2` (centres undefined), the GI50 was inactive: > 100 µM. Take `O=c1[nH]n(Cc2ccccn2)c2ccc([N+](=O)[O-])cc12`: the GI50 was inactive: > 100 µM.

As for `Cc1ccccc1N/N=C1\C(=O)Nc2ccccc21`, the GI50 was inactive: > 100 µM. For the compound `Cc1cc(C)c(C(=O)C(C)C(c2ccccc2)c2ccc(Cl)cc2)c(C)c1` (centres undefined), the GI50 was inactive: > 100 µM. Under `Cc1ccc(Nc2cc(=O)[nH]c(=O)[nH]2)cc1CS` stands inactive: > 100 µM. For the compound `COC(=O)C(Cc1nc2ccccc2nc1O)C(=O)C(=O)Nc1ccc(OC)cc1[N+](=O)[O-]` (centres undefined), the GI50 is inactive: > 100 µM. As to `Cn1ccnc1CCc1c(Cl)cccc1Cl`, the GI50 is inactive: > 100 µM.

For `COc1cc([C@@H]2c3[nH]c4ccccc4c3C(Nc3ccc([N+](=O)[O-])cc3)[C@H]3COC(=O)N23)cc(OC)c1O` (some centres undefined), the GI50 is active: 1.1 µM. Take `CN1CCN([C@H]2C[C@H]3[C@@H]4CC=C5C[C@@H](N6CCCC6)CC[C@]5(C)[C@H]4CC[C@]3(C)[C@H]2O)CC1`: the GI50 is inactive: 72.3 µM. Under `N=C(N)NS(=O)(=O)c1ccc(NC(=O)c2cccc3c(Nc4ccc(S(N)(=O)=O)cc4)c4ccccc4nc23)cc1` stands inactive: > 100 µM. With `CCOC(=O)C1S/C(=N\c2ccc(OC)c(OC)c2)N=C1C` (centres undefined), the GI50 is inactive: 38.5 µM. Under `O=c1c2ccccc2c2c3c1cccc3c1cccc3c(=O)c4ccccc4c2c31` stands inactive: > 100 µM.

Regarding `CC(=O)OCc1ccc2c(c1)C(O)NC(=O)O2` (centres undefined), the GI50 was inactive: 35.8 µM. Consider `[N-]=[N+]=Nc1ccc2c(c1)Sc1ccccc1N2CCCCN1CCN(C(=O)CCNC(=O)Cc2ccc(C(=O)c3ccccc3)cc2)CC1`, for which the GI50 is inactive: 5.26 µM. As to `O=C1NC(=O)C(C(CC(=O)c2ccc([N+](=O)[O-])cc2)c2ccccc2)C(=O)N1` (centres undefined), the GI50 is inactive: 2.68 µM.

With `C[C@H]1S[C@H](c2c(Cl)cccc2Cl)N2Cc3ccccc3N=C12`, the GI50 is inactive: 10.7 µM. Take `O=S(=O)(c1ccccc1)n1c2ccc(Br)cc2c2nc3ccccc3nc21`: the GI50 is inactive: > 100 µM. Under `Cc1cc(N(CCC#N)CCC#N)ccc1/C=C1N=C(/C=C\c2ccccc2)N(c2ccc(C(=O)O)cc2)C\1=O` stands inactive: > 100 µM. On to `NC(=S)N/N=C1\CC(c2ccccc2)Nc2ccccc21` (centres undefined), for which the GI50 is inactive: 63.2 µM. Under `COc1c(C)c(C/C=C(\C)CC/C=C(\C)CC/C=C(\C)CC/C=C(\C)CCC=C(C)C)c(OC)c(OC)c1OC` stands inactive: > 100 µM. As to `Cc1ccccc1NC(=O)CC1C(=O)Nc2ccccc2[S+]1[O-]` (centres undefined), the GI50 was inactive: > 100 µM.

As for `COc1ccc(-c2c(C#N)c(N)n(C3OC(CO)C(O)C(O)C3O)c(=S)c2C#N)cc1` (centres undefined), the GI50 was inactive: > 100 µM. With `O=c1ccn(C2OC(CO)C(O)C2[Se]c2ccccc2)c(=O)[nH]1` (centres undefined), the GI50 was inactive: > 100 µM. In the case of `C=CC1(C)/C(=N\O)C(C)(CC)C(=O)N1O` (centres undefined), the GI50 is inactive: > 100 µM. For the compound `COC(=O)C1=C(C)C(=O)C2(CCCCCC2C(=O)OC)C1` (centres undefined), the GI50 is inactive: > 100 µM. As for `N#CC1=C(N)OC(c2ccc([N+](=O)[O-])cc2)C1(C#N)C#N` (centres undefined), the GI50 was inactive: 20 µM. As to `CC(=O)Nc1[nH]n(C)c(=O)c1-c1nnc(C)s1`, the GI50 was inactive: > 100 µM. With `O=[N+]([O-])c1c(F)c(F)c2c(c1F)N(CCCCCl)c1ccccc1S2`, the GI50 was inactive: 7.31 µM. Under `CS(=O)(=O)OCCN(CCOS(C)(=O)=O)c1ccc(/C=N/c2ccc(-c3csc(Cc4ccccc4)n3)cc2)c(Cl)c1` stands inactive: 60 µM.

Turning to `O=C(Nc1nc2ccccc2s1)c1cc([N+](=O)[O-])ccc1Cl`, the GI50 is inactive: 15.2 µM.

For `Cc1cc(=O)oc2cc(SC(=O)N(C)C)ccc12`, the GI50 is inactive: > 100 µM. Under `CC/C=C1\N=C(c2ccc(Cl)cc2)OC1=O` stands inactive: > 100 µM; under `O=[As](O)(O)c1ccc(/N=N/c2ccc([As](=O)(O)O)cc2)cc1`, inactive: > 100 µM; under `O=S(=O)(O)c1cc(/N=N/c2c(O)ccc3ccccc23)c2c(S(=O)(=O)O)cccc2c1`, inactive: > 100 µM. With `COc1cc2c(cc1O)CN1CCC23C=C[C@@H](O)CC13` (some centres undefined), the GI50 was inactive: 36.9 µM.

Take `COC(=O)CC[C@@H](NC(=O)C(C)NC(=O)COC1C(O)C(COC(=O)CCCCCCCCCCNC(=O)c2ccc([N+](=O)[O-])c3[nH]c4cc(Br)ccc4c(=O)c23)OC(OCc2ccccc2)C1NC(C)=O)C(N)=O` (some centres undefined): the GI50 is inactive: > 100 µM.

Regarding `C[C@@H](c1ccccc1)N(CC#N)C1CCC[C@H]1O` (some centres undefined), the GI50 was inactive: > 100 µM.

As to `O=C1/C(=C/c2cccc(Cl)c2)CCCc2ccccc21`, the GI50 was inactive: 17.8 µM. Take `CCc1nc(N)nc(N)c1-c1ccc(N2CCOCC2)c(N=[N+]=[N-])c1`: the GI50 was inactive: 94.4 µM. With `Cc1cc(N(C)C)c2ccccc2[n+]1CCCCCCCCCC[n+]1c(C)cc(N(C)C)c2ccccc21.[O-][Cl+3]([O-])([O-])[O-].[O-][Cl+3]([O-])([O-])[O-]`, the GI50 is inactive: 3.09 µM.
